The values below come from US6900216B2, “Dihydroimidazo[2,1-b]thiazole and dihydro-5h-thiazolo[3,2-A]pyrimidines as antidepressant agents” (Knoll GmbH, priority 2000, dated 2005).

One may read the melting point as the temperature of the solid-liquid transition.

The structures appear in SMILES notation. Read-outs that look alike come from different tables or passages of the source. Entries with a single value are a further part of the results.

Turning to `CC1=C(c2cccc3sccc23)N2CCN=C2S1.Cl` [Example 9, 3-(benzo[b]thiophen-4-yl)-2-methyl-5,6-dihydroimidazo[2,1-b]thiazole hydrochloride], the melting point runs as follows: (Method A, first crop) 235 to 238 °C; (Method A, second crop from liquor) 234 to 237 °C; (from combined hydrobromide samples, basified) 242 to 245 °C.
